Test results as given in the supplement of paper PMC4967469.

Legend:
Assay in all cases: Viability of human cancer cell lines after 72 h of drug (GDSC screen)
[1] = compound: CCc1cc2c(cc1N1CCC(N3CCOCC3)CC1)C(C)(C)c1[nH]c3cc(C#N)ccc3c1C2=O [CH5424802]; conditions: top dose 5.12 µM; top dose inferred
Experimental: (§1)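 Human cancer cell lines in 384-well plates, medium with 10% serum, drug for 72 h over a 256-fold dose range (nine 2-fold or five 4-fold steps up to the top dose). Adherent lines were fixed and stained with the nucleic acid dye Syto60, suspension lines read with resazurin; signal relative to control wells, capped at 0 and 100%. One two-parameter sigmoid per drug and line, fitted in a mixed model over all curves with the slope shared within a line.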

[2] = compound: CC(C)(C)OC(=O)Nc1ccc(-c2cc(C(=O)NCCCCCCC(=O)NO)no2)cc1 [CAY10603]; conditions: top dose 20 µM; top dose inferred
Experimental: as §1

[3] = compound: N#Cc1c(C2CCNCC2)cc(-c2c(O)cccc2OCC2CC2)nc1N [ACHP (KIN001-260)]; conditions: top dose 20 µM; top dose inferred
Experimental: as §1

| Cell Line | AUC [1] | IC50 [1] | AUC [2] | IC50 [2] | AUC [3] | IC50 [3] |
| --- | --- | --- | --- | --- | --- | --- |
| HT-1080 (fibrosarcoma, adherent) | 0.988 | > 5.12 µM | 0.629 | 2.72 µM | 0.989 | > 20 µM |
| HT-1376 (bladder, adherent) | 0.985 | > 5.12 µM | 0.919 | > 20 µM | 0.985 | > 20 µM |
| HTC-C3 (thyroid, adherent) | 0.958 | > 5.12 µM | 0.418 | 0.723 µM | 0.973 | > 20 µM |
| Hep 3B2_1-7 (liver, adherent) | 0.984 | > 5.12 µM | 0.604 | 2.4 µM | 0.986 | > 20 µM |
| Hs633T (fibrosarcoma, adherent) | 0.99 | > 5.12 µM | 0.422 | 0.799 µM | 0.968 | > 20 µM |
| Hs746T (stomach, adherent) | 0.979 | > 5.12 µM | 0.397 | 0.59 µM | 0.919 | > 20 µM |
| HuCCT1 (biliary tract, adherent) | 0.98 | > 5.12 µM | 0.601 | 2.45 µM | 0.936 | > 20 µM |
| HuO-3N1 (osteosarcoma, adherent) | 0.977 | > 5.12 µM | 0.776 | 10.6 µM | 0.98 | > 20 µM |
| IGR-37 (melanoma, adherent) | 0.989 | > 5.12 µM | 0.51 | 1.33 µM | 0.95 | > 20 µM |
| IMR-5 (neuroblastoma, adherent) | 0.942 | > 5.12 µM | 0.301 | 0.384 µM | 0.955 | > 20 µM |
| IPC-298 (melanoma, adherent) | 0.981 | > 5.12 µM | 0.427 | 0.793 µM | 0.951 | > 20 µM |
| IST-SL1 (small cell lung carcinoma, semi-adherent) | 0.965 | > 5.12 µM | 0.25 | 0.234 µM | 0.892 | > 20 µM |
| J82 (bladder, adherent) | 0.987 | > 5.12 µM | 0.847 | 14.7 µM | 0.971 | > 20 µM |
| JAR (urogenital system, adherent) | 0.988 | > 5.12 µM | 0.578 | 2.03 µM | 0.98 | > 20 µM |
| JHH-2 (liver, adherent) | 0.975 | > 5.12 µM | 0.545 | 1.68 µM | 0.98 | > 20 µM |
| JHH-4 (liver, adherent) | 0.962 | > 5.12 µM | 0.52 | 1.41 µM | 0.911 | > 20 µM |
| JHH-6 (liver, adherent) | 0.987 | > 5.12 µM | 0.708 | 4.88 µM | 0.975 | > 20 µM |
| JHH-7 (liver, adherent) | 0.984 | > 5.12 µM | 0.667 | 3.52 µM | 0.989 | > 20 µM |
| JHU-011 (head and neck, adherent) | 0.978 | > 5.12 µM | 0.458 | 0.96 µM | 0.972 | > 20 µM |
| JM1 (B-cell lymphoma, suspension) | 0.964 | > 5.12 µM | 0.171 | 0.155 µM | 0.952 | > 20 µM |

| Cell Line | AUC [1] | IC50 [1] | AUC [2] | IC50 [2] | AUC [3] | IC50 [3] |
| --- | --- | --- | --- | --- | --- | --- |
| JSC-1 (B-cell lymphoma, suspension) | 0.981 | > 5.12 µM | 0.232 | 0.211 µM | 0.866 | 17.6 µM |
| JVM-2 (lymphoid neoplasm, suspension) | 0.975 | > 5.12 µM | 0.728 | 6.56 µM | 0.939 | > 20 µM |
| JVM-3 (lymphoid neoplasm, suspension) | 0.984 | > 5.12 µM | 0.438 | 0.842 µM | 0.932 | > 20 µM |
| JiyoyeP-2003 (Burkitt lymphoma, suspension) | 0.99 | > 5.12 µM | 0.405 | 0.709 µM | 0.956 | > 20 µM |
| KALS-1 (glioma, adherent) | 0.976 | > 5.12 µM | 0.596 | 2.53 µM | 0.955 | > 20 µM |
| KARPAS-45 (lymphoblastic leukaemia, suspension) | 0.974 | > 5.12 µM | 0.262 | 0.302 µM | 0.852 | 11.7 µM |
| KARPAS-422 (B-cell lymphoma, suspension) | 0.978 | > 5.12 µM | 0.471 | 1.04 µM | 0.954 | > 20 µM |
| KARPAS-620 (haematopoietic neoplasm, suspension) | 0.989 | > 5.12 µM | 0.204 | 0.198 µM | 0.877 | 15.3 µM |
| KE-37 (lymphoblastic leukaemia, suspension) | 0.992 | > 5.12 µM | 0.237 | 0.276 µM | 0.929 | 19.6 µM |
| KG-1 (acute myeloid leukaemia, suspension) | 0.906 | > 5.12 µM | 0.35 | 0.506 µM | 0.876 | 16.2 µM |
| KLE (endometrium, adherent) | 0.971 | > 5.12 µM | 0.6 | 2.73 µM | 0.97 | > 20 µM |
| KM-H2 (Hodgkin lymphoma, suspension) | 0.975 | > 5.12 µM | 0.992 | > 20 µM | 0.973 | > 20 µM |
| KMOE-2 (acute myeloid leukaemia, suspension) | 0.851 | 3.3 µM | 0.425 | 0.799 µM | 0.936 | > 20 µM |
| KMRC-1 (kidney, adherent) | 0.986 | > 5.12 µM | 0.592 | 2.27 µM | 0.986 | > 20 µM |
| KMS-11 (myeloma, suspension) | 0.991 | > 5.12 µM | 0.379 | 0.612 µM | 0.938 | > 20 µM |
| KMS-12-BM (myeloma, suspension) | 0.991 | > 5.12 µM | 0.321 | 0.438 µM | 0.853 | 11.6 µM |
| KNS-81-FD (glioma, adherent) | 0.972 | > 5.12 µM | 0.555 | 1.86 µM | 0.981 | > 20 µM |
| KON (head and neck, adherent) | 0.986 | > 5.12 µM | 0.954 | > 20 µM | 0.987 | > 20 µM |
| KOPN-8 (B-cell leukaemia, suspension) | 0.98 | > 5.12 µM | 0.214 | 0.213 µM | 0.917 | > 20 µM |
| KOSC-2 (head and neck, adherent) | 0.978 | > 5.12 µM | 0.554 | 1.77 µM | 0.984 | > 20 µM |

| Cell Line | AUC [1] | IC50 [1] | AUC [2] | IC50 [2] | AUC [3] | IC50 [3] |
| --- | --- | --- | --- | --- | --- | --- |
| KP-2 (pancreas, adherent) | 0.984 | > 5.12 µM | 0.647 | 3.31 µM | 0.982 | > 20 µM |
| KP-3 (pancreas, adherent) | 0.966 | > 5.12 µM | 0.679 | 4.39 µM | 0.968 | > 20 µM |
| KP-4 (pancreas, adherent) | 0.988 | > 5.12 µM | 0.664 | 3.49 µM | 0.985 | > 20 µM |
| KP-N-YS (neuroblastoma, adherent) | 0.938 | > 5.12 µM | 0.202 | 0.141 µM | 0.9 | > 20 µM |
| KS-1 (glioma, adherent) | 0.962 | > 5.12 µM | 0.595 | 2.42 µM | 0.931 | > 20 µM |
| KU812 (chronic myeloid leukaemia, suspension) | 0.988 | > 5.12 µM | 0.025 | < 0.0781 µM | 0.148 | 0.117 µM |
| KY821 (leukaemia, suspension) | 0.991 | > 5.12 µM | 0.54 | 1.59 µM | 0.987 | > 20 µM |
| KYM-1 (rhabdomyosarcoma, adherent) | 0.991 | > 5.12 µM | 0.518 | 1.38 µM | 0.991 | > 20 µM |
| KYSE-70 (oesophagus, adherent) | 0.983 | > 5.12 µM | 0.688 | 4.43 µM | 0.977 | > 20 µM |
| KYSE-180 (oesophagus, adherent) | 0.986 | > 5.12 µM | 0.579 | 2.03 µM | 0.945 | > 20 µM |
| KYSE-270 (oesophagus, adherent) | 0.99 | > 5.12 µM | 0.675 | 3.53 µM | 0.957 | > 20 µM |
| KYSE-510 (oesophagus, adherent) | 0.992 | > 5.12 µM | 0.735 | 5.08 µM | 0.992 | > 20 µM |
| KYSE-520 (oesophagus, adherent) | 0.862 | > 5.12 µM | 0.815 | 16.2 µM | 0.972 | > 20 µM |
| L-363 (myeloma, suspension) | 0.983 | > 5.12 µM | 0.439 | 0.873 µM | 0.929 | > 20 µM |
| L-540 (Hodgkin lymphoma, suspension) | 0.989 | > 5.12 µM | 0.985 | > 20 µM | 0.961 | > 20 µM |
| L-1236 (Hodgkin lymphoma, suspension) | 0.992 | > 5.12 µM | 0.381 | 0.624 µM | 0.744 | 5.44 µM |
| LAMA-84 (chronic myeloid leukaemia, suspension) | 0.978 | > 5.12 µM | 0.37 | 0.545 µM | 0.935 | > 20 µM |
| LC4-1 (lymphoblastic leukaemia, suspension) | 0.934 | > 5.12 µM | 0.347 | 0.447 µM | 0.851 | 17.8 µM |

IC50 is the fitted dose that halves viability relative to control wells, and lower means more sensitive; where the fit passes the top or lowest dose, that dose stands as a limit. AUC, from the same fit, is the share of area under the viability curve across the 256-fold dose range; values near 1 show little effect. A top dose marked as inferred comes from the curve model; the source does not state it.
